The source of these data is the antibiotic and cytotoxicity screens of Wong et al. (2023).

The list shows a part of the results.

One experiment concerns HSkMC. Put plainly: cytotoxicity call (relative viability < 0.9). The conditions noted are these: 10 µM.
Another experiment has as its system HepG2. Put plainly: cytotoxicity call (relative viability < 0.9). The note with it: 10 µM.
The test system of the next experiment is S. aureus RN4220. Put plainly: growth inhibition call (relative growth <= 0.2). The note with it: 50 µM.

For the compound `C[C@H](CO)N1C[C@H](C)[C@@H](CN(C)Cc2ccc(C(F)(F)F)cc2)OCCCC[C@H](C)Oc2ccc(NS(=O)(=O)c3ccc(Cl)cc3)cc2C1=O`, the cytotoxicity call with HSkMC was “active”. The cytotoxicity call in the experiment on HepG2 is “inactive”. For the same compound, the growth inhibition call in the experiment with S. aureus RN4220 was “inactive”.

As for `Cc1cc(C)n(-c2nc3c(c(=O)n(CCN4CCOCC4)c(=O)n3C)n2C)n1`, the cytotoxicity call with HSkMC and with HepG2 was “inactive” in each case. In addition, in the experiment on S. aureus RN4220, the growth inhibition call was “inactive”.

Consider `CC(O)C1C(=O)N2C(C(=O)[O-])=C(SC3Cn4cnc[n+]4C3)C(C)C12` (centres undefined), for which the cytotoxicity call with HSkMC and in the experiment with HepG2 was “inactive” in each case. Further, in the experiment with S. aureus RN4220, the growth inhibition call was “inactive”.

On to `C[C@H](CO)N1C[C@H](C)[C@@H](CN(C)C(=O)c2cc(Cl)cc(Cl)c2)OCc2ccccc2-c2c(n(C)c3ccccc23)C1=O`, for which the cytotoxicity call with HSkMC and in the experiment with HepG2 was “active” each time. Besides, in the experiment with S. aureus RN4220, the growth inhibition call was “inactive”.

With `C[C@@H]1CCCCO[C@@H](CN(C)C(=O)CCC(F)(F)F)[C@@H](C)CN([C@@H](C)CO)C(=O)c2cc(NC(=O)c3ccccc3)ccc2O1`, the cytotoxicity call in the experiment on HSkMC and in the experiment on HepG2 was “inactive” in each case. Besides, the growth inhibition call in the experiment on S. aureus RN4220 is “inactive”.

With `C[C@@H]1CN([C@@H](C)CO)C(=O)c2cc(NC(=O)CCC(F)(F)F)ccc2O[C@@H](C)CCCCO[C@H]1CN(C)Cc1ccc(C(F)(F)F)cc1`, the cytotoxicity call in the experiment on HSkMC and in the experiment on HepG2 was “inactive” in each case. Further, the growth inhibition call in the experiment on S. aureus RN4220 was “inactive”.

Turning to `CCCC#Cc1cnc2c(c1)C(=O)N([C@H](C)CO)C[C@H](C)[C@H](CN(C)S(=O)(=O)c1cccc(OC)c1)O2`, the cytotoxicity call with HSkMC and with HepG2 was “inactive” in each case. In the experiment with S. aureus RN4220, the growth inhibition call is “inactive”.

On to `C[C@@H]1CN([C@H](C)CO)C(=O)Cc2cc(NC(=O)c3ccncc3)ccc2O[C@@H]1CN(C)C(=O)Nc1ccc2c(c1)OCO2`, for which the cytotoxicity call in the experiment on HSkMC and with HepG2 was “inactive” throughout. The growth inhibition call in the experiment with S. aureus RN4220 is “inactive”.

Take `C[C@@H]1CN([C@@H](C)CO)C(=O)c2cc(NC(=O)Cc3ccccc3)ccc2O[C@@H]1CN(C)Cc1ccc(C(F)(F)F)cc1`: the cytotoxicity call with HSkMC and with HepG2 was “inactive” throughout. The growth inhibition call in the experiment with S. aureus RN4220 is “inactive”.

`CCN(CC)/[N+]([O-])=N/OC`: the cytotoxicity call with HSkMC and with HepG2 was “inactive” in each case. Besides, in the experiment on S. aureus RN4220, the growth inhibition call was “inactive”.

On to `C[C@@H]1CN([C@H](C)CO)C(=O)CCCn2cc(nn2)CO[C@H]1CN(C)Cc1ccc(C(=O)Nc2ccccc2N)cc1`, for which the cytotoxicity call in the experiment with HSkMC and in the experiment on HepG2 was “inactive” throughout. For the same compound, the growth inhibition call in the experiment with S. aureus RN4220 was “inactive”.

Turning to `O=C(O)C[C@@H]1CC[C@@H]2[C@H](COC[C@H](O)CN2S(=O)(=O)c2ccc(F)cc2)O1`, the cytotoxicity call in the experiment on HSkMC and with HepG2 was “inactive” in each case. The growth inhibition call with S. aureus RN4220 is “inactive”.

Regarding `CCCNC(=O)C[C@@H]1CC[C@@H]2[C@H](COc3ccc(NC(=O)c4ccc5c(c4)OCO5)cc3C(=O)N2C)O1`, the cytotoxicity call with HSkMC and in the experiment on HepG2 was “inactive” each time. For the same compound, the growth inhibition call in the experiment on S. aureus RN4220 was “inactive”.

On to `Cc1ncc([N+](=O)[O-])n1C[C@@H](CN1CCOCC1)OP(=O)(O)O`, for which the cytotoxicity call in the experiment on HSkMC and in the experiment on HepG2 was “inactive” throughout. In addition, the growth inhibition call in the experiment on S. aureus RN4220 is “inactive”.

Turning to `CN(Cc1[nH]nc2c1CCCC2)C(=O)Cc1c[nH]c(=O)n(C)c1=O`, the cytotoxicity call with HSkMC and with HepG2 was “inactive” each time. For the same compound, the growth inhibition call with S. aureus RN4220 is “inactive”.

As for `COCC(=O)N1CC[C@]2(CC1)CN([C@@H](CO)c1c2c2ccc(cc2n1C)OC)C(=O)CN1CCOCC1`, the cytotoxicity call with HSkMC and in the experiment on HepG2 was “inactive” in each case. For the same compound, in the experiment with S. aureus RN4220, the growth inhibition call was “inactive”.

As to `Cc1ccc(S(=O)(=O)N[C@@H](Cc2ccccc2)C(=O)NCCn2cc(-c3ccccc3N)nn2)cc1`, the cytotoxicity call with HSkMC and with HepG2 was “inactive” throughout. Also, the growth inhibition call in the experiment on S. aureus RN4220 was “inactive”.

Turning to `CNC(=O)c1ccc(Nc2ncc(C(F)(F)F)c(NCc3nccnc3N(C)S(C)(=O)=O)n2)cc1`, the cytotoxicity call with HSkMC and in the experiment with HepG2 was “active” each time. Further, the growth inhibition call in the experiment with S. aureus RN4220 is “inactive”.

`COc1ccc(NC(=O)Nc2ccc3c(c2)C(=O)N([C@@H](C)CO)C[C@H](C)[C@@H](CN(C)C(=O)C2CCCCC2)OCCCC[C@@H](C)O3)cc1`: the cytotoxicity call with HSkMC and with HepG2 was “inactive” throughout. For the same compound, in the experiment with S. aureus RN4220, the growth inhibition call was “inactive”.

In the case of `Cn1cnc(S(=O)(=O)N2C[C@@H](O)COC[C@H]3O[C@@H](CC(=O)NC4CCCC4)CC[C@@H]32)c1`, the cytotoxicity call in the experiment with HSkMC and in the experiment on HepG2 was “inactive” in each case. Besides, in the experiment with S. aureus RN4220, the growth inhibition call was “inactive”.

For the compound `COC(=O)CNS(=O)(=O)c1ccsc1C(=O)OC`, the cytotoxicity call with HSkMC and with HepG2 was “inactive” each time. Besides, the growth inhibition call with S. aureus RN4220 was “inactive”.

For `COc1ccc(CN(C)C[C@@H]2Oc3ccc(NS(=O)(=O)c4c(C)noc4C)cc3C(=O)N([C@@H](C)CO)C[C@@H]2C)cc1`, the cytotoxicity call with HSkMC and in the experiment on HepG2 was “inactive” throughout. In addition, in the experiment on S. aureus RN4220, the growth inhibition call is “inactive”.

With `COC(=O)c1ccc(Cn2cc(C(=O)NO)nn2)o1`, the cytotoxicity call in the experiment with HSkMC and in the experiment on HepG2 was “inactive” each time. The growth inhibition call with S. aureus RN4220 is “inactive”.

In the case of `O=C(O)[C@H]1C2C(=O)N(C3CC3)C[C@]23C=C[C@H]1O3` (some centres undefined), the cytotoxicity call with HSkMC and in the experiment on HepG2 was “inactive” each time. Further, in the experiment on S. aureus RN4220, the growth inhibition call is “inactive”.

Turning to `C[C@@H]1CCCCO[C@H](CN(C)C(=O)Nc2ccccc2)[C@H](C)CN([C@H](C)CO)C(=O)c2cc(NS(=O)(=O)c3cccs3)ccc2O1`, the cytotoxicity call in the experiment on HSkMC and with HepG2 was “inactive” each time. For the same compound, the growth inhibition call with S. aureus RN4220 was “inactive”.

As to `N=C(N)N`, the cytotoxicity call in the experiment on HSkMC and with HepG2 was “inactive” in each case. The growth inhibition call in the experiment on S. aureus RN4220 was “inactive”.

As to `C[C@@H]1CN([C@@H](C)CO)C(=O)Cc2cc(N(C)C)ccc2O[C@H]1CN(C)C(=O)Nc1ccc2c(c1)OCO2`, the cytotoxicity call in the experiment on HSkMC and with HepG2 was “inactive” each time. Further, in the experiment with S. aureus RN4220, the growth inhibition call was “inactive”.

On to `C[C@@H]1CN([C@@H](C)CO)C(=O)c2cc(NC(=O)Nc3cccc4ccccc34)ccc2O[C@@H](C)CCCCO[C@H]1CN(C)S(=O)(=O)c1cccs1`, for which the cytotoxicity call in the experiment on HSkMC (human skeletal muscle cells) and in the experiment on HepG2 was “inactive” throughout. For the same compound, the growth inhibition call in the experiment with S. aureus RN4220 was “inactive”.
